About 14,000 (4.5%) of roughly 310,000 compounds showed an effect of 50% or more. The effect is printed as a negative number. The list shows a part of the results.
Molecular target: human ether-à-go-go-related gene (hERG) potassium channel (human, UniProt Q12809)
Experiment: primary screen, population patch clamp on CHO cells stably expressing hERG
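Note: peak tail current of the secondary pulse compared with the same well before compound.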

Chain of human ether-à-go-go-related gene (hERG) potassium channel (Q12809 whole entry, looked up): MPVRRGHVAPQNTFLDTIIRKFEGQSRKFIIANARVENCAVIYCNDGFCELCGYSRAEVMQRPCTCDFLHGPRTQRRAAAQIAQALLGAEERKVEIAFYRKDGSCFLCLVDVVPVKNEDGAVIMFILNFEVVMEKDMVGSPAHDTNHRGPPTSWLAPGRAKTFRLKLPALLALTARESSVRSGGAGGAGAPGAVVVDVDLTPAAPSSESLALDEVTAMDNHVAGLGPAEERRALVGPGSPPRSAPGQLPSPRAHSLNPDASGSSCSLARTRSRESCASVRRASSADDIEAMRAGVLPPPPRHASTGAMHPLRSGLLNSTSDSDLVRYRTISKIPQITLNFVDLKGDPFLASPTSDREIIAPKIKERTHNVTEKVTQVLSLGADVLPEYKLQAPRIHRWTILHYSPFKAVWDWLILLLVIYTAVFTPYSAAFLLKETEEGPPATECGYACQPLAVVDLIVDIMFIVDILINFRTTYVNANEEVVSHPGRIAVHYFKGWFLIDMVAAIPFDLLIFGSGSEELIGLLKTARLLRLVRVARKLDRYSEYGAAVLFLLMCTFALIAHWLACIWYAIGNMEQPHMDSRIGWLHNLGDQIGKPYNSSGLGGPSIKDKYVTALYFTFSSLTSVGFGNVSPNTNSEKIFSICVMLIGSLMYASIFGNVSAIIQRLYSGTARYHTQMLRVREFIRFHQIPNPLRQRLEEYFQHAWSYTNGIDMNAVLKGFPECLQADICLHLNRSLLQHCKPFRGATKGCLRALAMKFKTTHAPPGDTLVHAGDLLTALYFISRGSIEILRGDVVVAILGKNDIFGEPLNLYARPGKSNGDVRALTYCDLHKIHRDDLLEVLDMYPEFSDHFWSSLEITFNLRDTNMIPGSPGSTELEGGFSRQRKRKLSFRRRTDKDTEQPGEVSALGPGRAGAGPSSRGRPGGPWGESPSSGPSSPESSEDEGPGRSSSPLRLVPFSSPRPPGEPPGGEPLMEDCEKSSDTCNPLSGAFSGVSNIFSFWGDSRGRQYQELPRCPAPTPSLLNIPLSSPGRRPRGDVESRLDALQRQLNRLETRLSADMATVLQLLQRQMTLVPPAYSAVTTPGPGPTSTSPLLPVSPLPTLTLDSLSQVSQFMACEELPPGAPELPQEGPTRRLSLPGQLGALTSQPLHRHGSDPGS

SMILES	hERG current change (%, negative = inhibition) at 10uM [%]
CCOC(=O)c1c(C)n(C)c2cc(Br)c(OC)cc12	15.6
CCc1ccc(NC(=O)Nc2ccncc2)cc1	-20.9
CCOc1ccc(NS(=O)(=O)c2cc(OC)ccc2OC)cc1	7.99
COc1ccc(OCC(=O)NC(=S)N2CCCc3ccccc32)cc1	2.37
Cc1nn(C)cc1C(=O)Nc1ccc2c(c1)OCCO2	9.1
O=[N+]([O-])c1ccc(CN2CCOCCOCCOCC2)cc1	-59.1
Cc1noc(C)c1C(=O)NNc1ccc(C(C)C)cc1	-1.85
CC1C(C#N)=C(SCC(N)=O)NC2=C1C(=O)CC(C)(C)C2 (stereo not drawn)	17.7
O=c1c(Cl)c(NCc2ccc(F)cc2)cnn1C12CC3CC(CC(C3)C1)C2	-30.5
CCOC(=O)c1cnc2c(Cl)cccc2c1NCCN1CCOCC1	-15.3
Cc1nn(Cc2cccc(Oc3ccccc3)c2)c(C)c1NC(=O)NC12CC3CC(CC(C3)C1)C2	-5.79
Cc1ccc(NS(=O)(=O)c2c(C)[nH]c(C)c2C(=O)N2CCCCC2)cc1Cl	16.3
CN(C)S(=O)(=O)c1ccc(Cl)c(NC(=O)COC(=O)CC(NC(N)=O)c2ccc(Cl)cc2)c1 (stereo not drawn)	3.05
Cc1cccc(NS(=O)(=O)c2ccc(NC(=O)CN(c3cc([N+](=O)[O-])ccc3C)S(C)(=O)=O)cc2)c1	2.36
O=C(c1ccc(Br)s1)N1CCN(C/C=C/c2ccccc2)CC1	-40.6
N#C/C(=N\Nc1ccccc1)C(=N)N1CCCCCC1	-41.1
CCc1nc2scc(-c3ccccc3)c2c(=O)n1N	1.05
O=C(Nc1cccn(Cc2ccc(F)cc2)c1=O)NC1CCCCC1	-36.2
CSc1ccc(C(=O)C2CCCN(C(=O)c3ccsc3)C2)cc1 (stereo not drawn)	-30.5
CCCCn1nc(C(=O)Nc2cc(C(F)(F)F)ccc2N2CCOCC2)ccc1=O	-83.7
Cc1cc(F)ccc1NCc1ccc([N+](=O)[O-])cc1	-0.213
O=C(C1CCCO1)N1CCN(c2ncccn2)CC1 (stereo not drawn)	13.7
CN1C(=O)C(CC(=O)Nc2ccc3c(c2)Cc2ccccc2-3)N(C)C1=O (stereo not drawn)	-11.5
CCN1C(=O)[C@H]2[C@@H](c3ccc(-c4ccc(F)cc4)c(OC)c3)N[C@@](C)(C(=O)OC)[C@H]2C1=O.O=C(O)C(F)(F)F	-4.06
